According to patent publication US11420968B2 (priority 2018, dated 2022):
Where two headings read alike, the source gives them in different places.

Key:
[1] = test system: RS4;11 cells; test: cells; conditions: Homo sapiens
[2] = test system: Molt-4 cells; test: cells; conditions: Homo sapiens
[3] = RS4-11, 48 h, read-out: Cellular activity (IC50, nM) RS4;11
[4] = MOLT-4, read-out: Cellular activity (IC50, nM) Molt-4
[5] = RS4-11, 48 h, read-out: Cellular activity (IC50, nM) RS4, 11
[6] = RS4-11, read-out: Celluclar activity (IC50, nM) RS 4, 11
[7] = MOLT-4, read-out: Celluclar activity (IC50, nM) Molt-4

Row | SMILES | IC50 [1, 3] [nM] | IC50 [2, 4] [nM] | IC50 [1, 5] [nM] | IC50 [1, 6] [nM] | IC50 [2, 7] [nM] | IC50 ([1]; RS4-11, read-out: Cellular activity (IC50, nM) RS4, 11) [nM]
1 | O=C(NS(=O)(=O)c1ccc(NCC2(F)CCOCC2)c([N+](=O)[O-])c1)c1ccc(N2CCC3(CC2)CC(N2CCC[C@@H]2c2ccccc2C2CC2)C3)cc1Oc1cnc2[nH]ccc2c1 [Example F28, (R)-2-((1H-pyrrolo[2,3-b]pyridin-5-yl)oxy)-4-(2-(2-(2-cyclopropylphenyl)pyrrolidin-1-yl)-7-azaspiro[3.5]nonan-7-yl)-N-((4-(((4-fluorotetrahydro-2H-pyran-4-yl)methyl)amino)-3-nitrophenyl)sulfonyl)benzamide] | 83 | > 10000 | – | – | – | –
2 | O=C(NS(=O)(=O)c1ccc(N[C@@H]2CCN(C(CF)CF)C2)c([N+](=O)[O-])c1)c1ccc(C2=CCC(N3CCCC3c3ccccc3C3CC3)CC2)cc1Oc1cnc2[nH]ccc2c1 (stereo partly drawn) [Example G64, 3-((1H-pyrrolo[2,3-b]pyridin-5-yl)oxy)-4′-(2-(2-cyclopropylphenyl)pyrrolidin-1-yl)-N-((4-(((R)-1-(1,3-difluoropropan-2-yl)pyrrolidin-3-yl)amino)-3-nitrophenyl)sulfonyl)-2′,3′,4′,5′-tetrahydro-[1,1′-biphenyl]-4-carboxamide] | – | 3740 | 70 | – | – | –
3 | CC(C)c1ccccc1CC1CCCN1C1CC=C(c2ccc(C(=O)NS(=O)(=O)c3ccc(NCC4CCOCC4)c([N+](=O)[O-])c3)c(Oc3cnc4[nH]ccc4c3)c2)CC1 (stereo not drawn) [Example C184, 3-((1H-pyrrolo[2,3-b]pyridin-5-yl)oxy)-4′-(2-(2-isopropylbenzyl)pyrrolidin-1-yl)-N-((3-nitro-4-(((tetrahydro-2H-pyran-4-yl)methyl)amino)phenyl)sulfonyl)-2′,3′,4′,5′-tetrahydro-[1,1′-biphenyl]-4-carboxamide] | – | 7120 | 226 | – | – | –
4 | CS(=O)(=O)N1CC=C(c2ccccc2C2CCCN2c2ccc(-c3ccc(C(=O)NS(=O)(=O)c4ccc(NCC5CCOCC5)c([N+](=O)[O-])c4)c(Oc4cnc5[nH]ccc5c4)c3)cc2)CC1 (stereo not drawn) [Example A111, 3-((1H-pyrrolo[2,3-b]pyridin-5-yl)oxy)-4′-(2-(2-(1-(methylsulfonyl)-1,2,3,6-tetrahydropyridin-4-yl)phenyl)pyrrolidin-1-yl)-N-((3-nitro-4-(((tetrahydro-2H-pyran-4-yl)methyl)amino)phenyl)sulfonyl)-[1,1′-biphenyl]-4-carboxamide] | 31 | 6290 | – | – | – | –
5 | CN(C)CCOc1ccccc1C1CCCN1c1ccc(-c2ccc(C(=O)NS(=O)(=O)c3ccc(NCC4CCOCC4)c([N+](=O)[O-])c3)c(Oc3cnc4[nH]ccc4c3)c2)cc1 (stereo not drawn) [Example A127, 3-((1H-pyrrolo[2,3-b]pyridin-5-yl)oxy)-4′-(2-(2-(2-(dimethylamino)ethoxy)phenyl)pyrrolidin-1-yl)-N-((3-nitro-4-(((tetrahydro-2H-pyran-4-yl)methyl)amino)phenyl)sulfonyl)-[l. 1′-biphenyl]-4-carboxamide] | 32 | 4100 | – | – | – | –
6 | CC(=O)N1CCC(c2ccccc2[C@H]2CCCN2c2ccc(-c3ccc(C(=O)NS(=O)(=O)c4ccc(NCC5CCOCC5)c([N+](=O)[O-])c4)c(Oc4cnc5[nH]ccc5c4)c3)cc2)CC1 [Example A110, (R)-3-((1H-pyrrolo[2,3-b]pyridin-5-yl)oxy)-4′-(2-(2-(1-acetylpiperidin-4-yl)phenyl)pyrrolidin-1-yl)-N-((3-nitro-4-(((tetrahydro-2H-pyran-4-yl)methyl)amino)phenyl)sulfonyl)-[1,1′-biphenyl]-4-carboxamide] | 15 | 1260 | – | – | – | –
7 | O=C(NS(=O)(=O)c1ccc(NCC2CCOCC2)c([N+](=O)[O-])c1)c1ccc(-c2ccc(N3CC4CCCC4C3c3ccccc3C3CC3)cc2)cc1Oc1cnc2[nH]ccc2c1 (stereo not drawn) [Example A78, 3-((1H-pyrrolo[2,3-b]pyridin-5-yl)oxy)-4′-(1-(2-cyclopropylphenyl)hexahydrocyclopenta[c]pyrrol-2(1H)-yl)-N-((3-nitro-4-(((tetrahydro-2H-pyran-4-yl)methyl)amino)phenyl)sulfonyl)-[1,1′-biphenyl]-4-carboxamide] | 1410 | > 10000 | – | – | – | –
8 | O=C(NS(=O)(=O)c1ccc(NCC2CCOCC2)c([N+](=O)[O-])c1)c1ccc(N2CCC3(CC2)CC(N2CC(C4CC4)CC2c2ccccc2C2CC2)C3)cc1Oc1cnc2[nH]ccc2c1 (stereo not drawn) [Example F79, 2-((1H-pyrrolo[2,3-b]pyridin-5-yl)oxy)-4-(2-(4-cyclopropyl-2-(2-cyclopropylphenyl)pyrrolidin-1-yl)-7-azaspiro[3.5]nonan-7-yl)-N-((3-nitro-4-(((tetrahydro-2H-pyran-4-yl)methyl)amino)phenyl)sulfonyl)benzamide] | 38 | > 10000 | – | – | – | –
9 | Nc1ncc(Oc2cc(N3CCC4(CC3)CC(N3CCC[C@H]3c3ccccc3C3CC3)C4)ccc2C(=O)NS(=O)(=O)c2ccc(NCC3CCOCC3)c([N+](=O)[O-])c2)cc1Cl [Example F126, (S)-2-((6-amino-5-chloropyridin-3-yl)oxy)-4-(2-(2-(2-cyclopropylphenyl)pyrrolidin-1-yl)-7-azaspiro[3.5]nonan-7-yl)-N-((3-nitro-4-(((tetrahydro-2H-pyran-4-yl)methyl)amino)phenyl)sulfonyl)benzamide] | 7.5 | > 10000 | – | 7.5 | > 10000 | –
10 | O=C(NS(=O)(=O)c1ccc(NCC2CCOCC2)c([N+](=O)[O-])c1)c1ccc(C2=CCC(N3CCCC3Cc3ccccc3)CC2)cc1Oc1cnc2[nH]ccc2c1 (stereo not drawn) [Example C6, 3-((1H-pyrrolo[2,3-b]pyridin-5-yl)oxy)-4′-(2-benzylpyrrolidin-1-yl)-N-((3-nitro-4-(((tetrahydro-2H-pyran-4-yl)methyl)amino)phenyl)sulfonyl)-2′,3′,4′,5′-tetrahydro-[1,1′-biphenyl]-4-carboxamide] | – | > 10000 | 1300 | – | – | –
11 | CC(=O)N1CCC(c2ccccc2[C@H]2CCCN2c2ccc(-c3ccc(C(=O)NS(=O)(=O)c4ccc(NC[C@H]5CC[C@](C)(O)CC5)c([N+](=O)[O-])c4)c(Oc4cnc5[nH]ccc5c4)c3)cc2)CC1 [Example G123, 3-((1H-pyrrolo[2,3-b]pyridin-5-yl)oxy)-4′-((R)-2-(2-(1-acetylpiperidin-4-yl)phenyl)pyrrolidin-1-yl)-N-((4-((((1r,4r)-4-hydroxy-4-methylcyclohexyl)methyl)amino)-3-nitrophenyl)sulfonyl)-[1,1′-biphenyl]-4-carboxamide] | 5.4 | 3560 | – | – | – | –
12 | CN1CCC(c2ccccc2[C@H]2CCCN2c2ccc(-c3ccc(C(=O)NS(=O)(=O)c4ccc(NCC5CCOCC5)c([N+](=O)[O-])c4)c(Oc4cnc5[nH]ccc5c4)c3)cc2)CC1=O (stereo partly drawn) [Example A101, 3-((1H-pyrrolo[2,3-b]pyridin-5-yl)oxy)-4′-((2R)-2-(2-(1-methyl-2-oxopiperidin-4-yl)phenyl)pyrrolidin-1-yl)-N-((3-nitro-4-(((tetrahydro-2H-pyran-4-yl)methyl)amino)phenyl)sulfonyl)-[1,1′-biphenyl]-4-carboxamide] | 7.1 | 2410 | – | – | – | –
13 | O=C(NS(=O)(=O)c1ccc(NCC2CCOCC2)c([N+](=O)[O-])c1)c1ccc(-c2ccc(N3CCCC3c3ccc(C4CC4)cc3)cc2)cc1Oc1cnc2[nH]ccc2c1 (stereo not drawn) [Example A14, 3-((1H-pyrrolo[2,3-b]pyridin-5-yl)oxy)-4′-(2-(4-cyclopropylphenyl)pyrrolidin-1-yl)-N-((3-nitro-4-(((tetrahydro-2H-pyran-4-yl)methyl)amino)phenyl)sulfonyl)-[1,1′-biphenyl]-4-carboxamide] | – | > 10000 | 1570 | – | – | 1570
14 | CN(C)c1ccccc1[C@@H]1CCCN1C1CC2(CCN(c3ccc(C(=O)NS(=O)(=O)c4ccc(NC[C@H]5CC[C@](C)(O)CC5)c([N+](=O)[O-])c4)c(Oc4cnc5[nH]ccc5c4)c3)CC2)C1 [Example F63, 2-((1H-pyrrolo[2,3-b]pyridin-5-yl)oxy)-4-(2-((S)-2-(2-(dimethylamino)phenyl)pyrrolidin-1-yl)-7-azaspiro[3.5]nonan-7-yl)-N-((4-((((1r,4r)-4-hydroxy-4-methylcyclohexyl)methyl)amino)-3-nitrophenyl)sulfonyl)benzamide] | 0.8 | 6820 | – | 0.8 | 6820 | –
15 | COc1ccc(C2CCCN2c2ccc(-c3ccc(C(=O)NS(=O)(=O)c4ccc(NCC5CCOCC5)c([N+](=O)[O-])c4)c(Oc4cnc5[nH]ccc5c4)c3)cc2)cc1 (stereo not drawn) [Example A19, 3-((1H-pyrrolo[2,3-b]pyridin-5-yl)oxy)-4′-(2-(4-methoxyphenyl)pyrrolidin-1-yl)-N-((3-nitro-4-(((tetrahydro-2H-pyran-4-yl)methyl)amino)phenyl)sulfonyl)-[1,1′-biphenyl]-4-carboxamide] | – | > 10000 | 1020 | – | – | –
16 | O=C(NS(=O)(=O)c1ccc(NCC2CCOCC2)c([N+](=O)[O-])c1)c1ccc(-c2ccc(N3CCCC3c3ccccc3N3CCC(O)CC3)cc2)cc1Oc1cnc2[nH]ccc2c1 (stereo not drawn) [Example A124, 3-((1H-pyrrolo[2,3-b]pyridin-5-yl)oxy)-4′-(2-(2-(4-hydroxypiperidin-1-yl)phenyl)pyrrolidin-1-yl)-N-((3-nitro-4-(((tetrahydro-2H-pyran-4-yl)methyl)amino)phenyl)sulfonyl)-[1,1′-biphenyl]-4-carboxamide] | 14 | 5840 | – | – | – | –
17 | O=C(NS(=O)(=O)c1ccc(NCC2CCOCC2)c([N+](=O)[O-])c1)c1ccc(N2CCC3(CC2)CC(N2CCCC2c2ccc(C4CC4)cc2C2CC2)C3)cc1Oc1cnc2[nH]ccc2c1 (stereo not drawn) [Example F75, 2-((1H-pyrrolo[2,3-b]pyridin-5-yl)oxy)-4-(2-(2-(2,4-dicyclopropylphenyl)pyrrolidin-1-yl)-7-azaspiro[3.5]nonan-7-yl)-N-((3-nitro-4-(((tetrahydro-2H-pyran-4-yl)methyl)amino)phenyl)sulfonyl)benzamide] | 36 | 2040 | – | – | – | –
